This note sets out measurements from paper PMC3585203.

Amino acid sequences for entries named in this document (tags omitted). A change or cut given only in a name is not applied to a line headed by its entry. Chains listed by the source or under a name are the forms on record and can include a tag or linker. Residues count along the entry.
Rvs167 241-482 (two-hybrid fusion) (P39743, residues 241-482): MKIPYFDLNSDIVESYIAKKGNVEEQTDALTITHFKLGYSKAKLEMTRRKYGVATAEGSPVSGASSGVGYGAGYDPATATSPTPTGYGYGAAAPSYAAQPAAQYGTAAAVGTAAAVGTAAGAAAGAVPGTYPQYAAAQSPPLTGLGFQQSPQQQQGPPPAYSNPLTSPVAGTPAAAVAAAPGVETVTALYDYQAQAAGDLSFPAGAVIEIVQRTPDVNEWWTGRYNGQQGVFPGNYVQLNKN
SH3 domain of Rvs167 (expressed in E. coli) (P39743, residues 421-482): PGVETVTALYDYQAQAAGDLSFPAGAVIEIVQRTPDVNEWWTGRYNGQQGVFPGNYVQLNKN
Rvs167-P473L (P39743, form named): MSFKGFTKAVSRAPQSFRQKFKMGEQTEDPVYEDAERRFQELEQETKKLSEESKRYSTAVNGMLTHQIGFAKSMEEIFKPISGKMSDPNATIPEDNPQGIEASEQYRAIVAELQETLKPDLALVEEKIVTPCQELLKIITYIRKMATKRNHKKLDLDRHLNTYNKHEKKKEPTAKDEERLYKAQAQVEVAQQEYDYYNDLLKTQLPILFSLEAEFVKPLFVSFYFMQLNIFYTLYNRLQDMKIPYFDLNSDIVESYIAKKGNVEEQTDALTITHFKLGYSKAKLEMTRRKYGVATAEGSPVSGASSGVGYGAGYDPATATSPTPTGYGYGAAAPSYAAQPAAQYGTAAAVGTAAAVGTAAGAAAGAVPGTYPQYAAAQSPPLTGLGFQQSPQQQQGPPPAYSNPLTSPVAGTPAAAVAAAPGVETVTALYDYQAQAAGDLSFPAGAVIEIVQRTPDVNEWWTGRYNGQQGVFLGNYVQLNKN

Where two headings read alike, the source gives them in different places. No constants are given. Whether binding was seen depends on the method and setting. For part of these data: Binding seen in cells or lysates may run through a third protein. Some binding calls cover weakened binding; strength is not graded here. For part of these data: Where a sequence is shown, tags or fusion partners need not be part of it.

Assay [1] addresses T1, Inn1 (S. cerevisiae) (UniProt P53901).
T1 sequence: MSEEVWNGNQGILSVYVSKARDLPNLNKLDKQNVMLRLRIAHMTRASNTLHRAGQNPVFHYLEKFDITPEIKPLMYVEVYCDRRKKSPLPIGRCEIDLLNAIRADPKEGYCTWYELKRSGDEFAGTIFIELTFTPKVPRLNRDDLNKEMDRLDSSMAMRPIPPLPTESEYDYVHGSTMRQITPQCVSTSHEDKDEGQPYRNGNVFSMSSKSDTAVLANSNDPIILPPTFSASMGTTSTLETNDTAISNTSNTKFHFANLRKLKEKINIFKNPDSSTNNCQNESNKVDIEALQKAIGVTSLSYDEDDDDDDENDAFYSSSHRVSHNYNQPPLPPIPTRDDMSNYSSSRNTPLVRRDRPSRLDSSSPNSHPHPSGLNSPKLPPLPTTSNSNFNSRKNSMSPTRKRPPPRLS
Nature of the assay: two-hybrid; vectors pGADT7 and pGBKT7 (Clontech); cells grown 3 days at 30°C on Synthetic Complete medium lacking leucine and tryptophan (non-selective) or also lacking histidine (selective).

Assay [2] deals with T2, Inn1 135-409 (expressed in E. coli) (S. cerevisiae) (UniProt P53901).
T2 sequence: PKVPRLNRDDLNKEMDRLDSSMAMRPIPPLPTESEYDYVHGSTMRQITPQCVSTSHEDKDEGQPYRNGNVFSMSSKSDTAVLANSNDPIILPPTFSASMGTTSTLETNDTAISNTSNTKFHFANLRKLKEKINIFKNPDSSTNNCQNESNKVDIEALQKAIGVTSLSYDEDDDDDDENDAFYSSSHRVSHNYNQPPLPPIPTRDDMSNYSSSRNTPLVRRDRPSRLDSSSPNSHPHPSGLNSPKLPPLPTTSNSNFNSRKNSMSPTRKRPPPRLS
Nature of the assay: pull-down; fragments expressed individually in E. coli as 3-Streptag or 6His-tag fusions; pairs of cultures mixed; Streptag fusions isolated from the extract on Strep-Tactin Superflow, eluted with d-Desthiobiotin, then bound to Ni-NTA agarose and eluted with 250 mM imidazole; SDS-PAGE, colloidal Coomassie.

Assay [3] addresses T3, Inn1 135-409 (two-hybrid fusion) (S. cerevisiae) (UniProt P53901).
T3 sequence: T2 sequence
Nature of the assay: two-hybrid; vectors pGADT7 and pGBKT7 (Clontech); cells grown 3 days at 30°C on Synthetic Complete medium lacking leucine and tryptophan (non-selective) or also lacking histidine (selective).

The target in assay [4] is T1, Inn1 (S. cerevisiae). The assay is described as above. This is another data set of the same source.
The target in assay [5] is T2, Inn1 135-409 (expressed in E. coli) (S. cerevisiae). Briefly: pull-down; fragments expressed individually in E. coli as 3-Streptag or 6His-tag fusions; pairs of cultures mixed; Streptag fusions isolated from the extract on Strep-Tactin Superflow, eluted with d-Desthiobiotin, then bound to Ni-NTA agarose and eluted with 250 mM imidazole; SDS-PAGE, colloidal Coomassie. This is another data set of the same source.

Consider Rvs167 (from UniProt P39743 1-482), for which, in the assay with Inn1 (S. cerevisiae) [1], the binding result was “binds”.
Regarding “Rvs167-P473L (from UniProt P39743 1-482)”, in the assay with Inn1 (S. cerevisiae) [1], the binding result is “no binding”.
Take “Rvs167 241-482 (expressed in E. coli) (from UniProt P39743 241-482) (domain or fragment)”: in assay [2], the binding entry was “binds”.
Consider “Rvs167 241-482 (two-hybrid fusion) (from UniProt P39743 241-482) (domain or fragment)”, for which the binding entry in assay [3] is on record as “binds”.
Take “SH3 domain of Rvs167 (expressed in E. coli) (from UniProt P39743 421-482) (domain or fragment)”: in assay [2], the binding entry is “no binding”.

B1: Lsb3 (protein, UniProt P43603 1-459)
chain: MGINNPIPRSLKSETKKAAKILASFVKPNQVFGADQVIPPDVLKRAKGLAIITILKAGFLFSGRAGSGVIVARLKDGTWSAPSAIAMAGAGAGGMVGIELTDFVFILNTQDAVKSFSEFGTITLGGNVSVSAGPLGRSAEAAASASAGGVAAVFAYSKSKGLFAGVSVEGSAIIERREANRKFYGDNCTAKMILSGRIRPPPAVDPLFRVLESRAFNYRPSNGGRGSFDDDEDDYYDDDDYYNDIPSSFSSTDASSTRPNTRSTRRRAQSGSRYTFDDDDDDDDYGTGYSRNSRLAPTNSGGSGGKLDDPSGASSYYASHRRSGTAQSRARSSRNRWADDEYDDYDDDYESGYRRGNGRDRTKDREVDDLSNRFSKSRISSASTPQTSQGRFTAPTSPSTSSPKAVALYSFAGEESGDLPFRKGDVITILKKSDSQNDWWTGRVNGREGIFPANYVELV
Turning to B1, in the assay with Inn1 (S. cerevisiae) [4], the binding result is reported as “no binding”.

B2: Abp1 (protein, UniProt P15891 1-592)
chain: MALEPIDYTTHSREIDAEYLKIVRGSDPDTTWLIISPNAKKEYEPESTGSSFHDFLQLFDETKVQYGLARVSPPGSDVEKIIIIGWCPDSAPLKTRASFAANFAAVANNLFKGYHVQVTARDEDDLDENELLMKISNAAGARYSIQTSSKQQGKASTPPVKKSFTPSKSPAPVSKKEPVKTPSPAPAAKISSRVNDNNDDDDWNEPELKERDFDQAPLKPNQSSYKPIGKIDLQKVIAEEKAKEDPRLVQKPTAAGSKIDPSSDIANLKNESKLKRDSEFNSFLGTTKPPSMTESSLKNDDDKVIKGFRNEKSPAQLWAERKAKQNSGNAETKAEAPKPEVPEDEPEGEPDVKDLKSKFEGLAASEKEEEEMENKFAPPPKKSEPTIISPKPFSKPQEPVKAEEAEQPKTDYKKIGNPLPGMHIEADNEEEPEENDDDWDDDEDEAAQPPLPSRNVASGAPVQKEEPEQEEIAPSLPSRNSIPAPKQEEAPEQAPEEEIEEEAEEAAPQLPSRSSAAPPPPPRRATPEKKPKENPWATAEYDYDAAEDNELTFVENDKIINIEFVDDDWWLGELEKDGSKGLFPSNYVSLGN
B2: the binding result with Inn1 (S. cerevisiae) [4] is “no binding”.

B3: SH3 domain of Cyk3 (expressed in E. coli) (domain or fragment, UniProt Q07533 9-70)
chain: KPPFKVKARYGWSGQTKGDLGFLEGDIMEVTRIAGSWFYGKLLRNKKCSGYFPHNFVILLEE
Regarding B3, in assay [5], the binding result is reported as “binds”.

B4: SH3 domain of Hof1 (expressed in E. coli) (domain or fragment, UniProt Q05080 599-667)
chain: PVIEYAKAMYPLIGNEAPGLANFHKGDYLLITEIVNKDWYKGEVYDNDRIDRNHRIGLIPYNFIQLLHQ
With B4, the binding entry in assay [5] was “binds”.
